Experimental data reported in the supplement of paper PMC8728848.
This is one part of the list.

What was measured:
Experiment in all cases: glycan array binding signal (z-score within array); higher = stronger binding
Conditions in all cases: glycan notation: IUPAC condensed, linker removed
[1] = biological target: Gal(b1-3)GlcNAc(b1-6)[Gal(b1-3)]GalNAc
In short: (§1)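 From the Consortium for Functional Glycomics database, 3228 arrays were curated, keeping only those whose protein sequence was available. Binding is given as a within-array Z-score averaged across arrays sharing a protein sequence and across linkers. Negative Z-scores can be read as non-binding.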

Gal(b1-3)GlcNAc6S = biological target: Gal(b1-3)GlcNAc6S
In short: as §1

[2] = biological target: Gal(b1-3)[Fuc(a1-4)]GlcNAc
In short: as §1

[3] = biological target: Gal(b1-3)[Fuc(a1-4)]GlcNAc(b1-2)Man
In short: as §1

[4] = biological target: Gal(b1-3)[Fuc(a1-4)]GlcNAc(b1-2)Man(a1-3)[Gal(b1-3)[Fuc(a1-4)]GlcNAc(b1-2)Man(a1-6)]Man(b1-4)GlcNAc(b1-4)[Fuc(a1-6)]GlcNAc
In short: as §1

[5] = biological target: Gal(b1-3)[Fuc(a1-4)]GlcNAc(b1-3)Gal(b1-3)[Fuc(a1-4)]GlcNAc
In short: as §1

[6] = biological target: Gal(b1-3)[Fuc(a1-4)]GlcNAc(b1-3)Gal(b1-4)[Fuc(a1-3)]GlcNAc
In short: as §1

[7] = biological target: Gal(b1-3)[Fuc(a1-4)]GlcNAc(b1-6)GalNAc
In short: as §1

[8] = biological target: Gal(b1-3)[GlcNAc(b1-6)]GalNAc
In short: as §1

[9] = biological target: Gal(b1-3)[Neu5Ac(a2-6)]GalNAc
In short: as §1

[10] = biological target: Gal(b1-3)[Neu5Ac(a2-6)]GlcNAc(b1-4)Gal(b1-4)Glc
In short: as §1

[11] = biological target: Gal(b1-3)[Neu5Ac(b2-6)]GalNAc
In short: as §1

Gal(b1-4)Gal = biological target: Gal(b1-4)Gal
In short: as §1

[12] = biological target: Gal(b1-4)GalNAc(a1-3)[Fuc(a1-2)]Gal(b1-4)GlcNAc
In short: as §1

[13] = biological target: Gal(b1-4)GalNAc(b1-3)[Fuc(a1-2)]Gal(b1-4)GlcNAc
In short: as §1

Gal(b1-4)Glc = biological target: Gal(b1-4)Glc
In short: as §1

Gal(b1-4)Glc6S = biological target: Gal(b1-4)Glc6S
In short: as §1

Gal(b1-4)GlcNAc = biological target: Gal(b1-4)GlcNAc
In short: as §1

[14] = biological target: Gal(b1-4)GlcNAc(a1-6)Gal(b1-4)GlcNAc
In short: as §1

Gal(b1-4)GlcNAc(b1-2)Man = biological target: Gal(b1-4)GlcNAc(b1-2)Man
In short: as §1

[15] = biological target: Gal(b1-4)GlcNAc(b1-2)Man(a1-3)Man(b1-4)GlcNAc(b1-4)GlcNAc
In short: as §1

[16] = biological target: Gal(b1-4)GlcNAc(b1-2)Man(a1-3)[Gal(b1-4)GlcNAc(b1-2)Man(a1-6)]Man(b1-4)GlcNAc(b1-4)GlcNAc
In short: as §1

[17] = biological target: Gal(b1-4)GlcNAc(b1-2)Man(a1-3)[Gal(b1-4)GlcNAc(b1-2)Man(a1-6)]Man(b1-4)GlcNAc(b1-4)[Fuc(a1-6)]GlcNAc
In short: as §1

[18] = biological target: Gal(b1-4)GlcNAc(b1-2)Man(a1-3)[Gal(b1-4)GlcNAc(b1-2)Man(a1-6)][Gal(b1-4)GlcNAc(b1-4)]Man(b1-4)GlcNAc(b1-4)[Fuc(a1-6)]GlcNAc
In short: as §1

[19] = biological target: Gal(b1-4)GlcNAc(b1-2)Man(a1-3)[Gal(b1-4)GlcNAc(b1-2)Man(a1-6)][GlcNAc(b1-4)]Man(b1-4)GlcNAc(b1-4)[Fuc(a1-6)]GlcNAc
In short: as §1

[20] = biological target: Gal(b1-4)GlcNAc(b1-2)Man(a1-3)[GlcNAc(b1-2)Man(a1-6)]Man(b1-4)GlcNAc(b1-4)GlcNAc
In short: as §1

[21] = biological target: Gal(b1-4)GlcNAc(b1-2)Man(a1-3)[GlcNAc(b1-4)][Gal(b1-4)GlcNAc(b1-2)Man(a1-6)]Man(b1-4)GlcNAc(b1-4)GlcNAc
In short: as §1

[22] = biological target: Gal(b1-4)GlcNAc(b1-2)Man(a1-3)[Man(a1-6)]Man(b1-4)GlcNAc(b1-4)GlcNAc
In short: as §1

[23] = biological target: Gal(b1-4)GlcNAc(b1-2)Man(a1-6)Man(b1-4)GlcNAc(b1-4)GlcNAc
In short: as §1

[24] = biological target: Gal(b1-4)GlcNAc(b1-2)Man(a1-6)[GlcNAc(b1-2)Man(a1-3)]Man(b1-4)GlcNAc(b1-4)GlcNAc
In short: as §1

[25] = biological target: Gal(b1-4)GlcNAc(b1-2)Man(a1-6)[Man(a1-3)]Man(b1-4)GlcNAc(b1-4)GlcNAc
In short: as §1

[26] = biological target: Gal(b1-4)GlcNAc(b1-2)[Gal(b1-4)GlcNAc(b1-4)]Man(a1-3)[Gal(b1-4)GlcNAc(b1-2)Man(a1-6)]Man(b1-4)GlcNAc(b1-4)GlcNAc
In short: as §1

[27] = biological target: Gal(b1-4)GlcNAc(b1-2)[Gal(b1-4)GlcNAc(b1-4)]Man(a1-3)[Gal(b1-4)GlcNAc(b1-2)[Gal(b1-4)GlcNAc(b1-6)]Man(a1-6)]Man(b1-4)GlcNAc(b1-4)GlcNAc
In short: as §1

[28] = biological target: Gal(b1-4)GlcNAc(b1-2)[Gal(b1-4)GlcNAc(b1-4)]Man(a1-3)[GlcNAc(b1-4)][Gal(b1-4)GlcNAc(b1-2)Man(a1-6)]Man(b1-4)GlcNAc(b1-4)GlcNAc
In short: as §1

[29] = biological target: Gal(b1-4)GlcNAc(b1-2)[Gal(b1-4)GlcNAc(b1-4)]Man(a1-3)[GlcNAc(b1-4)][Gal(b1-4)GlcNAc(b1-2)[Gal(b1-4)GlcNAc(b1-6)]Man(a1-6)]Man(b1-4)GlcNAc(b1-4)GlcNAc
In short: as §1

[30] = biological target: Gal(b1-4)GlcNAc(b1-2)[Gal(b1-4)GlcNAc(b1-6)]Man(a1-6)[Gal(b1-4)GlcNAc(b1-2)Man(a1-3)]Man(b1-4)GlcNAc(b1-4)GlcNAc
In short: as §1

[31] = biological target: Gal(b1-4)GlcNAc(b1-2)[Gal(b1-4)GlcNAc(b1-6)]Man(a1-6)[Gal(b1-4)GlcNAc(b1-2)Man(a1-3)]Man(b1-4)GlcNAc(b1-4)[Fuc(a1-6)]GlcNAc
In short: as §1

B1: ECL (Erythrina cristagalli), Q6YD91 (protein)
chain: VETISFSFSEFEPGNNDLTLQGAAIITQSGVLQLTKINQNGMPAWDSTGRTLYTKPVHIWDMTTGTVASFETRFSFSIEQPYTRPLPADGLVFFMGPTKSKPAQGYGYLGVFNNSKQDNSYQTLAVEFDTFSNPWDPPQVPHIGIDVNSIRSIKTQPFQLDNGQVANVVIKYDASSKILLAVLVYPSSGAIYTIAEIVDVKQVLPEWVDVGLSGATGAQRDAAETHDVYSWSFHASLPETND
- glycan array binding signal (z-score) [1]: -0.221
- glycan array binding signal (z-score) (Gal(b1-3)GlcNAc6S): -0.554
- glycan array binding signal (z-score) [2]: -0.281
- glycan array binding signal (z-score) [3]: -0.18
- glycan array binding signal (z-score) [4]: 0.29
- glycan array binding signal (z-score) [5]: -0.349
- glycan array binding signal (z-score) [6]: -0.248
- glycan array binding signal (z-score) [7]: 0.041
- glycan array binding signal (z-score) [8]: -0.279
- glycan array binding signal (z-score) [9]: -0.423
- glycan array binding signal (z-score) [10]: -0.373
- glycan array binding signal (z-score) [11]: -0.546
- glycan array binding signal (z-score) (Gal(b1-4)Gal): -0.086
- glycan array binding signal (z-score) [12]: -0.273
- glycan array binding signal (z-score) [13]: -0.355
- glycan array binding signal (z-score) (Gal(b1-4)Glc): -0.19
- glycan array binding signal (z-score) (Gal(b1-4)Glc6S): -0.156
- glycan array binding signal (z-score) (Gal(b1-4)GlcNAc): 0.036
- glycan array binding signal (z-score) [14]: -0.195
- glycan array binding signal (z-score) (Gal(b1-4)GlcNAc(b1-2)Man): -0.311
- glycan array binding signal (z-score) [15]: 0.144
- glycan array binding signal (z-score) [16]: 0.745
- glycan array binding signal (z-score) [17]: 0.114
- glycan array binding signal (z-score) [18]: 2.23
- glycan array binding signal (z-score) [19]: 1.56
- glycan array binding signal (z-score) [20]: 0.18
- glycan array binding signal (z-score) [21]: 0.248
- glycan array binding signal (z-score) [22]: 0.069
- glycan array binding signal (z-score) [23]: -0.154
- glycan array binding signal (z-score) [24]: -0.136
- glycan array binding signal (z-score) [25]: 0.021
- glycan array binding signal (z-score) [26]: 3.21
- glycan array binding signal (z-score) [27]: 4.03
- glycan array binding signal (z-score) [28]: 0.663
- glycan array binding signal (z-score) [29]: 1.79
- glycan array binding signal (z-score) [30]: 1.65
- glycan array binding signal (z-score) [31]: 5.09
